Reference: article PMC10196724
These are yes or no findings as the source states them, for the method shown. In cells and extracts the contact can be indirect. Some results given as binding are weak or reduced against the parent protein; the word gives no strength. For some assays here: Where a sequence is shown, tags or fusion partners need not be part of it.

Protein sequences, listed by entry. Tags and fused reporters are not part of them.
UniProt P49840: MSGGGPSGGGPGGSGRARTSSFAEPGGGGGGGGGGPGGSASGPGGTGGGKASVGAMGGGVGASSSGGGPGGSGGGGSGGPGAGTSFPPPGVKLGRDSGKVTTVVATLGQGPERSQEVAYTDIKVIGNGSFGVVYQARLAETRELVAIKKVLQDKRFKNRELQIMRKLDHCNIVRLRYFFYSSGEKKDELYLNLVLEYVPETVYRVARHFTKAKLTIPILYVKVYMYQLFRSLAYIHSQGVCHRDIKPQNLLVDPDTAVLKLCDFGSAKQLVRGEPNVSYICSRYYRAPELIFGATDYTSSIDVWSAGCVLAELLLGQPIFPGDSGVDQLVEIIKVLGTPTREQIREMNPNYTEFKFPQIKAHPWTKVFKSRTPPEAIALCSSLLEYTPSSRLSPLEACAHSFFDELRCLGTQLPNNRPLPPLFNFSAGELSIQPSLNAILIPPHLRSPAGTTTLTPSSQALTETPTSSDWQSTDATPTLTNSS
UniProt P49841: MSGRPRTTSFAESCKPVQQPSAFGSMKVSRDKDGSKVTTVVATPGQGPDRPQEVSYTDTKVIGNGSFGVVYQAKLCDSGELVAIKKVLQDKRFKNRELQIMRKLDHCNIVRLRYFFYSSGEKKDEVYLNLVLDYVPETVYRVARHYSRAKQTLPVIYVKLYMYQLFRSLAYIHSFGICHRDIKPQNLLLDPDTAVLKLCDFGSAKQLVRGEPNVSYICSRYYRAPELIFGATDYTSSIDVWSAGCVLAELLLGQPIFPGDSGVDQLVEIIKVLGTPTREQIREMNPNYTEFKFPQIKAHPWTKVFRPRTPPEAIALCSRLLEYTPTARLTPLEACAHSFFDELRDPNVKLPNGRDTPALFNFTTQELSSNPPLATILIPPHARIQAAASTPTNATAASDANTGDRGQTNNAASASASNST

T1: THRAP3 (human (endogenous in 293T)) (UniProt Q9Y2W1)
T1 sequence: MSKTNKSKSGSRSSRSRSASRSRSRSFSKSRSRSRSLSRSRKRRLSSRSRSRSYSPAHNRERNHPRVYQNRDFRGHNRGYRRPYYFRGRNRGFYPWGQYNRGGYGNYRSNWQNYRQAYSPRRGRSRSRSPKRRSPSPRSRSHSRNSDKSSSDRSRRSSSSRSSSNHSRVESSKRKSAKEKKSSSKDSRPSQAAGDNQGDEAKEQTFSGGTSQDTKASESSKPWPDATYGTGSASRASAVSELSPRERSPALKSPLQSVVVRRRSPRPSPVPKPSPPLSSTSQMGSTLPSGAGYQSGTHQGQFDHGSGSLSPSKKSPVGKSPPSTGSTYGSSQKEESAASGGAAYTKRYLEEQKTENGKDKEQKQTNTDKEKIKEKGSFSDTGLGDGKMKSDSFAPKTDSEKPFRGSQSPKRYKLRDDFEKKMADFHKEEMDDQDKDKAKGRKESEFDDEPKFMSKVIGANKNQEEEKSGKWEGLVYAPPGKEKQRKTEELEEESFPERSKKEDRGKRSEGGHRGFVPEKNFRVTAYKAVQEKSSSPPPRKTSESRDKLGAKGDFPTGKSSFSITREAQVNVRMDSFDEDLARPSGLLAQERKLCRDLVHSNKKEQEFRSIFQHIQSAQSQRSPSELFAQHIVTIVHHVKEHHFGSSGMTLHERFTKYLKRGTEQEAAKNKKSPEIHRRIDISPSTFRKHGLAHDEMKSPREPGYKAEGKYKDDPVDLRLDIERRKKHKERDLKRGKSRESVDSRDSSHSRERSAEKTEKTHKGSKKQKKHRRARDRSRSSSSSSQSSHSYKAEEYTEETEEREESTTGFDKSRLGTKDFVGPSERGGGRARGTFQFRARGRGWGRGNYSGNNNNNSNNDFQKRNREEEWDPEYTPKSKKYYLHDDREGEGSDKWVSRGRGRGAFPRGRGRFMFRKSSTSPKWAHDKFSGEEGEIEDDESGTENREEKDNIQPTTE

T2: Flag-THRAP3 (human) (UniProt Q9Y2W1)
T2 sequence: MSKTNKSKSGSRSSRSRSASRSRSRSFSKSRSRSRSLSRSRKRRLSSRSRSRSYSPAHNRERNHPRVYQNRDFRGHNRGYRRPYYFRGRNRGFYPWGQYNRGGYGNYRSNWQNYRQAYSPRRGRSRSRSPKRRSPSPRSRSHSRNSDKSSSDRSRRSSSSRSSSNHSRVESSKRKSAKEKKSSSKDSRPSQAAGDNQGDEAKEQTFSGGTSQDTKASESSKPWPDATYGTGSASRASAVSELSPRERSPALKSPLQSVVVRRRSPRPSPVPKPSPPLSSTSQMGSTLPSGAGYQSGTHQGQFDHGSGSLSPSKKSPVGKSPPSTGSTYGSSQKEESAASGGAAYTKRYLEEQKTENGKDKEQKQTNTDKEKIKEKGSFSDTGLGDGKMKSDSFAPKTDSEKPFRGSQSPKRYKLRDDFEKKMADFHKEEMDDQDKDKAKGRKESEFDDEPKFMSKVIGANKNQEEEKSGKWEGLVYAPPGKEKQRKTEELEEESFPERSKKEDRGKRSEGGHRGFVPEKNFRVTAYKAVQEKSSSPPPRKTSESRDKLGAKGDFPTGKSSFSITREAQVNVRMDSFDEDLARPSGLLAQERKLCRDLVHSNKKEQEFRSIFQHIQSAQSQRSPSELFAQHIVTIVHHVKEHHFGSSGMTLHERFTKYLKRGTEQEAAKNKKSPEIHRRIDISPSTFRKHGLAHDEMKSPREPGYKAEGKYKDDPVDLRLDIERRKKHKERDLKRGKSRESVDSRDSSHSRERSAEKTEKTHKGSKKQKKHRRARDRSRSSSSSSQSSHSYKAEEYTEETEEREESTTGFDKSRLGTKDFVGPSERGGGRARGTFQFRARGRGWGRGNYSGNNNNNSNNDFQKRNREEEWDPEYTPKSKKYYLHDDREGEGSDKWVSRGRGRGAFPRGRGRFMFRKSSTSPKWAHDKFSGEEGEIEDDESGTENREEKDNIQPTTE


Columns and labels:
[1] = target: T1, THRAP3 (human (endogenous in 293T)); experiment: co-IP; endogenous THRAP3 enriched with an anti-THRAP3 antibody, IgG as control; immunoblots with anti-GSK3α and anti-GSK3β antibodies (Fig. 6N)
Flag-THRAP3 (human) = target: T2, Flag-THRAP3 (human); experiment: co-IP; Flag-THRAP3 pulled down with anti-Flag magnetic beads from lysate of transfected cells; immunoblots with anti-GSK3α and anti-GSK3β antibodies (Fig. 6L, M)
GSK3α-myc (human) = GSK3α-myc (human) (UniProt P49840); experiment: co-IP; binding proteins of GSK3α-myc immunoblotted with anti-THRAP3 antibody (Fig. 6K)

Molecule | binding [1] | binding (Flag-THRAP3 (human)) | binding (GSK3α-myc (human))
GSK3α (from UniProt P49840 1-483) (enzyme) | binds | binds | 
GSK3β (from UniProt P49841 1-420) (enzyme) | no binding | no binding | 
THRAP3 (protein, UniProt Q9Y2W1 1-955) MSKTNKSKSGSRSSRSRSASRSRSRSFSKSRSRSRSLSRSRKRRLSSRSRSRSYSPAHNRERNHPRVYQNRDFRGHNRGYRRPYYFRGRNRGFYPWGQYNRGGYGNYRSNWQNYRQAYSPRRGRSRSRSPKRRSPSPRSRSHSRNSDKSSSDRSRRSSSSRSSSNHSRVESSKRKSAKEKKSSSKDSRPSQAAGDNQGDEAKEQTFSGGTSQDTKASESSKPWPDATYGTGSASRASAVSELSPRERSPALKSPLQSVVVRRRSPRPSPVPKPSPPLSSTSQMGSTLPSGAGYQSGTHQGQFDHGSGSLSPSKKSPVGKSPPSTGSTYGSSQKEESAASGGAAYTKRYLEEQKTENGKDKEQKQTNTDKEKIKEKGSFSDTGLGDGKMKSDSFAPKTDSEKPFRGSQSPKRYKLRDDFEKKMADFHKEEMDDQDKDKAKGRKESEFDDEPKFMSKVIGANKNQEEEKSGKWEGLVYAPPGKEKQRKTEELEEESFPERSKKEDRGKRSEGGHRGFVPEKNFRVTAYKAVQEKSSSPPPRKTSESRDKLGAKGDFPTGKSSFSITREAQVNVRMDSFDEDLARPSGLLAQERKLCRDLVHSNKKEQEFRSIFQHIQSAQSQRSPSELFAQHIVTIVHHVKEHHFGSSGMTLHERFTKYLKRGTEQEAAKNKKSPEIHRRIDISPSTFRKHGLAHDEMKSPREPGYKAEGKYKDDPVDLRLDIERRKKHKERDLKRGKSRESVDSRDSSHSRERSAEKTEKTHKGSKKQKKHRRARDRSRSSSSSSQSSHSYKAEEYTEETEEREESTTGFDKSRLGTKDFVGPSERGGGRARGTFQFRARGRGWGRGNYSGNNNNNSNNDFQKRNREEEWDPEYTPKSKKYYLHDDREGEGSDKWVSRGRGRGAFPRGRGRFMFRKSSTSPKWAHDKFSGEEGEIEDDESGTENREEKDNIQPTTE |  |  | binds
